PubChem BioAssay AID493131 (Broad Institute, 2011)
The campaign covered roughly 340,000 compounds. About 3,300 (0.97%) were called active. Inconclusive means that the source gave no clear call. Such entries were picked first, then a sample of the others.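 The calls were made as follows: active = mean activation above about 17%, with every replicate also reaching it (limit read from the data, passing the limit was not always enough); inconclusive = only one of the two conditions met; inactive = the rest.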

target: Protein FosB (Mus musculus) (UniProt P13346); experiment: enhancers of mouse delta FosB DNA binding – biochemical, fluorescence polarization, TAMRA-CDK5 oligo, single point, primary screen (AID 493131); conditions: purified delta FosB, at 25 µM, active compounds read high, percent of positive-control signal above neutral wells;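 also: fluorescence polarization rise as delta FosB binds a TAMRA Cdk5 AP-1 oligo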
Sequence of UniProt P13346 (P13346 whole entry, looked up): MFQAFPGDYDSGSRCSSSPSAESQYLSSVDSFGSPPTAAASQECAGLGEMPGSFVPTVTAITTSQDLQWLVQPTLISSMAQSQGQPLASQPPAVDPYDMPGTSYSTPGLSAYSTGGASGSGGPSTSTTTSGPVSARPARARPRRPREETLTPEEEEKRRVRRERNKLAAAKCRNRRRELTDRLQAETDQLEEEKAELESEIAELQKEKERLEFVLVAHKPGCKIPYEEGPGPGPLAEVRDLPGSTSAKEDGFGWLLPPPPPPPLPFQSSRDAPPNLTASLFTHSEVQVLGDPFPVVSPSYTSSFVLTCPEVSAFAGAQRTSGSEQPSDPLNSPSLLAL

Row | SMILES | activation
1 | COc1ccc(C(=O)CCc2ccccc2)cc1 | inactive: -1.12%
2 | Cc1ccc(NS(=O)(=O)c2ccc(NC(=O)c3ccc(-c4ccccc4)cc3)cc2)c(C)c1 | active: 54.4%
3 | C=CC(=O)Nc1cccc(Oc2cc(Cl)nc3[nH]ccc23)c1 | inconclusive: 17.5%
4 | CCN(Cc1ccccc1)S(=O)(=O)c1ccc(C(=O)N(CCCN(C)C)c2nc3cc4c(cc3s2)OCO4)cc1 | inconclusive: 35.3%
5 | O=C(Cn1cc(C(F)(F)F)cc(Cl)c1=O)NCCc1ccc(Cl)cc1Cl | inconclusive: 18.4%
6 | COc1ccc(C(=O)CSc2nnc(-c3cc(C)on3)o2)cc1 | inactive: -3.95%
7 | COc1ccc(CC(=O)Nc2ccc(-c3noc(-c4ccccc4OC)n3)cc2)cc1 | inconclusive: 21%
8 | COc1ccc(NC(=O)Cn2c(=O)n(Cc3ccco3)c(=O)c3ccccc32)cc1 | inconclusive: 20%
9 | CC(C)c1ccc(N(C(=O)c2snc(C(N)=O)c2N)C(C(=O)NC2CCCC2)c2ccncc2)cc1 (configuration not stated) | active: 40.2%
10 | CC(Sc1nc(NCc2ccccc2)nc(N2CCOCC2)n1)C(=O)Nc1ccccc1 (configuration not stated) | inconclusive: 17.4%
11 | O=C(COc1ccc(Cl)cc1)Nc1ccc2oc(-c3ccncc3)nc2c1 | active: 37.1%
12 | Cn1c(=O)[nH]c(=O)c2c1nc(SCC(=O)Nc1ccccc1)n2Cc1ccccc1 | active: 53.7%
13 | CN(c1ccccc1)S(=O)(=O)c1ccc(C(=O)OCC(=O)NC(N)=O)cc1 | inconclusive: 18.9%
14 | COc1cc(CNc2ncnc3c2[nH]c2ccc(C)cc23)cc(OC)c1 | inconclusive: 16%
15 | CCc1ccc(N2CC(C(=O)Nc3ccc(S(=O)(=O)NCC4CCCO4)cc3)CC2=O)cc1 (configuration not stated) | inconclusive: 18.8%
16 | O=C(NNC(=O)c1cccnc1SCc1cccc([N+](=O)[O-])c1)c1ccc(F)cc1 | inactive: 6.63%
17 | O=C(COc1cccc(Cl)c1)N/N=C\c1cc2ccccc2nc1Cl | inactive: -1.1%
18 | COCCN(C(=O)COC(=O)CCc1ccc(OC)cc1)c1c(N)n(Cc2ccccc2)c(=O)[nH]c1=O | inconclusive: 18.5%
19 | CCCNC(=O)NC(=O)CSc1nc2cc(C(=O)OC)ccc2c(=O)n1-c1ccccc1 | inconclusive: 19.2%
20 | CCOC(=O)C1CCCCN1Cc1cccc(F)c1 (configuration not stated) | inactive: -0.752%
21 | C#CCOCCOCCOCCNc1nc(N2CCN(C(=O)CCCCCCCCCCNC(=O)Cn3cc(CCCCCN)nn3)CC2)nc(N2CCN(C(=O)CCCCCCCCCCNC(=O)[C@H]([C@@H](C)CC)n3cc(CCCCN=C(N)N)nn3)CC2)n1 | inactive: -213%
22 | COc1cc(/C=C2\SC(=S)N(CCCCC(=O)O)C2=O)ccc1OS(=O)(=O)c1ccc(C)cc1 | inactive: -13.4%
